The record followed here is patent US20240254223A1 (NOVIMMUNE, published 2024).

Assay [1] addresses T1, His-tagged human CD47 (human, UniProt Q08722 part only, limits assumed).
T1 construct: loaded on HIS1K biosensors at 2.5 µg/mL; also called target antigen; not shown: His tag
Description: BLI, His-CD47 on HIS1K sensor, antibody 15 µg/mL. As for the experimental part: The capacity of the masking domains to inhibit binding activity of the antibody was evaluated by Bio-Layer Interferometry (BLI). […] Binding experiments were performed to evaluate the masking efficiency and the binding recovery after cleavage of the masking domains. BLI was performed on an Octet RED96 system (Sartorius). His-tagged human CD47 was diluted at 2.5 μg/mL in Kinetic Buffer (KB) (Sartorius) and loaded on HIS1K biosensors (anti-His tag antibody biosensors, Sartorius) for 300 seconds. Loaded biosensors were dipped into antibodies diluted at 15 μg/mL in KB for 300 seconds to monitor association. Then, biosensors were transferred in KB for dissociation for 60 seconds. Binding profiles were then analyzed with ForteBio Data Analysis software.
Background: BLI is a label-free optical method that tracks binding on a fibre tip over time.

Assay [2] addresses T2, high affinity trimeric IL-2R (IL-2Rα, IL-2Rβ and IL-2Rγ) on HEK-Blue IL-2 cells (UniProt P01589 22-272; P14784 27-551; P31785 23-369).
T2 sequence (looked up) 1: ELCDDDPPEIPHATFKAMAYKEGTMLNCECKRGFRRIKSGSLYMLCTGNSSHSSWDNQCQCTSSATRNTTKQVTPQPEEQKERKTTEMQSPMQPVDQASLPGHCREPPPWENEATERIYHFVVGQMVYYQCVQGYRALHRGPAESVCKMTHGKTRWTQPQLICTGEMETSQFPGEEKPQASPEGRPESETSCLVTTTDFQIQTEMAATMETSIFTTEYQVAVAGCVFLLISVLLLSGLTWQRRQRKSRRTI
T2 sequence (looked up) 2: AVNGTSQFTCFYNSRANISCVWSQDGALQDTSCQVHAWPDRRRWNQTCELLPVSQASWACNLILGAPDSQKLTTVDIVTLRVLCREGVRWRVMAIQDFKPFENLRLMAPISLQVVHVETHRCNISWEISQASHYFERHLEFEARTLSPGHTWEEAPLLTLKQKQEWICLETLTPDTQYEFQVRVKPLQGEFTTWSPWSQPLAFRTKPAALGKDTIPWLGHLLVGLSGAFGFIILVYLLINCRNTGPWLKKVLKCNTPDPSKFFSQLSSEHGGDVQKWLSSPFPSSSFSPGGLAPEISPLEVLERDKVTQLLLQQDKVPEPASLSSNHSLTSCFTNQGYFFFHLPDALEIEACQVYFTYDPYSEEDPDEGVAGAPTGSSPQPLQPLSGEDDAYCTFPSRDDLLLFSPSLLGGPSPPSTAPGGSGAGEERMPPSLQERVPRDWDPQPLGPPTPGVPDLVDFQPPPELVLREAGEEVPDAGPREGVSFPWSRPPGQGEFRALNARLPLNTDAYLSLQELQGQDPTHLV
T2 sequence (looked up) 3: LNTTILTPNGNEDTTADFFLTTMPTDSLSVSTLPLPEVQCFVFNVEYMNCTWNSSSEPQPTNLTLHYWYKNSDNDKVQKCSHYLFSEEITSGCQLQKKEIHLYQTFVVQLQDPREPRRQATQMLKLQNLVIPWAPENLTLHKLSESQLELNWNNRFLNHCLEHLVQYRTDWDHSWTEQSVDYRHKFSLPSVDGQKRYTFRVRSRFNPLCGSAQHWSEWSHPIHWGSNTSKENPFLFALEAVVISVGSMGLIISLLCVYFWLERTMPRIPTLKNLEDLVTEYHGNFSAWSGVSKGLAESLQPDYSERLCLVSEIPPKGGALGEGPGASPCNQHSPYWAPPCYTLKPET
Description: cell-based or functional assay.

Assay [3] has as its target T3, CD47 at the surface of Peak cells (human, UniProt Q08722).
T3 construct: whole, on cells; also called cell surface CD47
Description: flow cytometry, Peak cells; EC50 before / EC50 after cleavage. On the procedure: (§1) Binding activity of antibody-cytokine/receptor fusions before and after cleavage was also evaluated by flow cytometry. Peak cells derived from HEK 293 which are human cells expressing CD47 were used to evaluate masking efficacy and binding recovery to CD47 by flow cytometry. Peak cells were diluted in cold FACS buffer (PBS, 2% BSA) to 1.2×10⁶ cells/mL. 3×10⁵ cells/well were added in a 96 well V-bottom plate. The plate was then centrifugated for 5 min at 1300 rpm, 4° C. Supernatants were removed and cells were washed twice using FACS buffer. A serial dilution of antibody-cytokine/receptor fusions previously digested with MMP-9 or not digested as described above was prepared in FACS buffer. An irrelevant antibody was included. Then, 150 μL of each diluted antibody were added in corresponding well and incubated for 30 min at 4° C. Cells were washed twice with FACS buffer and 100 μL of a mouse anti human Fc-PE conjugated secondary antibody were added and the plate was incubated for 20 min at 4° C. Cells were then washed twice with FACS buffer. Finally, 150 μL of SYTOX blue dead cell stain (ThermoFisher) diluted to 1/5000 in FACS buffer were added before detection by flow cytometry with Cytoflex (Beckman Coulter). Acquisition was performed with 10000 events for each well. Data were analyzed by FlowJo software.

Assay [4] deals with T3, CD47 at the surface of Peak cells. Description: flow cytometry, Peak cells, before cleavage. On the procedure: as §1
On the technique in general: In flow cytometry, cells or beads pass a laser one at a time.

B1: pNOVI V2K K91_A_IL-2_1_153_CM1 VKCK_IL-2Rα_1_238_CM1_IL-2Rβ_27_239_CM1 VHCH (antibody, human IgG1, kappa)
light: [about 150 residues left out]GGGGSVHMPLGFLGPGGSDIQMTQSPSSLSASVGDRVTITCNVDQVIANWLNWYQQKPGKAPKLLIYAASSLQSGVPSRFSGSGSGTDFTLTISSLQPEDFATYYCQQMHPRAPKQFGQGTKVEIKRTVAAPSVFIFPPSDEQLKSGTASVVCLLNNFYPREAKVQWKVDNALQSGNSQESVTEQDSKDSTYSLSSTLTLSKADYEKHKVYACEVTHQGLSSPVTKSFNRGEC
heavy: ELCDDDPPEIPHATFKAMAYKEGTMLNCECKRGFRRIKSGSLYMLCTGNSSHSSWDNQCQCTSSATRNTTKQVTPQPEEQKERKTTEMQSPMQPVDQASLPGHCREPPPWENEATERIYHFVVGQMVYYQCVQGYRALHRGPAESVCKMTHGKTRWTQPQLICTGEMETSQFPGEEKPQASPEGRPESETSCLVTTTDFQIQTEMAATMETSIFTTEGGGGSVHMPLGFLGPGGSAVNGTSQFTCFYNSRANISCVWSQDGALQDTSCQVHAWPDRRRWNQTCELLPVSQASWACNLILGAPDSQKLTTVDIVTLRVLCREGVRWRVMAIQDFKPFENLRLMAPISLQVVHVETHRCNISWEISQASHYFERHLEFEARTLSPGHTWEEAPLLTLKQKQEWICLETLTPDTQYEFQVRVKPLQGEFTTWSPWSQPLAFRTKPAALGKDGGGGSVHMPLGFLGPGGS[about 120 residues left out][about 100 residues left out][human IgG1 Fc left out]
notes: masked K91 fusion, uncleaved; also called n450; construct No 450
Consider B1, for which the “Binding before cleavage (BLI)” value in assay [1] turned out to be 0.6 nm. In assay [2], the “EC50 before cleavage IL-2, HEK Blue IL-2 αβγ reporter assay” value worked out at 0.19 nM and the “EC50 ratio (BC/AC), HEK Blue IL-2 αβγ reporter assay” value (shortened to “EC50 ratio (BC/AC)”) was 25. Further, the “Binding recovery (BC/AC)” value in assay [3] is 80. For the same molecule, in assay [4], the midpoint of the response, the EC50, lay at 31.6 nM.

B2: pNOVI V2K K91_A1_IL-2_1_153_CM1 VKCK IL-2Rα_1_238_CM1_IL-2Rβ_27_239_CM1 VHCH (antibody, human IgG1, kappa)
light: [about 150 residues left out]GGGGSVHMPLGFLGPGGSDIQMTQSPSSLSASVGDRVTITCNVDQVIANWLNWYQQKPGKAPKLLIYAASSLQSGVPSRFSGSGSGTDFTLTISSLQPEDFATYYCQQMHPRAPKQFGQGTKVEIKRTVAAPSVFIFPPSDEQLKSGTASVVCLLNNFYPREAKVQWKVDNALQSGNSQESVTEQDSKDSTYSLSSTLTLSKADYEKHKVYACEVTHQGLSSPVTKSFNRGEC
heavy: ELCDDDPPEIPHATFKAMAYKEGTMLNCECKRGFRRIKSGSLYMLCTGNSSHSSWDNQCQCTSSATRNTTKQVTPQPEEQKERKTTEMQSPMQPVDQASLPGHCREPPPWENEATERIYHFVVGQMVYYQCVQGYRALHRGPAESVCKMTHGKTRWTQPQLICTGEMETSQFPGEEKPQASPEGRPESETSCLVTTTDFQIQTEMAATMETSIFTTEGGGGSGGGGSVHMPLGFLGPGGSAVNGTSQFTCFYNSRANISCVWSQDGALQDTSCQVHAWPDRRRWNQTCELLPVSQASWACNLILGAPDSQKLTTVDIVTLRVLCREGVRWRVMAIQDFKPFENLRLMAPISLQVVHVETHRCNISWEISQASHYFERHLEFEARTLSPGHTWEEAPLLTLKQKQEWICLETLTPDTQYEFQVRVKPLQGEFTTWSPWSQPLAFRTKPAALGKDGGGGSVHMPLGFLGPGGS[about 120 residues left out][about 100 residues left out][human IgG1 Fc left out]
notes: masked K91 fusion, uncleaved; also called n471; construct No 471
As for B2, the “Binding before cleavage (BLI)” value in assay [1] is 0.6 nm. Also, in assay [2], the “EC50 before cleavage IL-2, HEK Blue IL-2 αβγ reporter assay” value stood at 0.12 nM and the “EC50 ratio (BC/AC)” value stood at 19. Besides, the “Binding recovery (BC/AC)” value in assay [3] is 96. Further, the concentration giving a half-maximal response (EC50) – broadly, the concentration needed to bring the measured effect to its halfway point – in assay [4] is 31.8 nM.

B3: pNOVI V2K K91_A2_IL-2_1_153_CM1 VKCK IL-2Rα_1_238_CM1_IL-2Rβ_27_239_CM1 VHCH (antibody, human IgG1, kappa)
light: [about 150 residues left out]GGGGSVHMPLGFLGPGGSDIQMTQSPSSLSASVGDRVTITCNVDQVIANWLNWYQQKPGKAPKLLIYAASSLQSGVPSRFSGSGSGTDFTLTISSLQPEDFATYYCQQMHPRAPKQFGQGTKVEIKRTVAAPSVFIFPPSDEQLKSGTASVVCLLNNFYPREAKVQWKVDNALQSGNSQESVTEQDSKDSTYSLSSTLTLSKADYEKHKVYACEVTHQGLSSPVTKSFNRGEC
heavy: ELCDDDPPEIPHATFKAMAYKEGTMLNCECKRGFRRIKSGSLYMLCTGNSSHSSWDNQCQCTSSATRNTTKQVTPQPEEQKERKTTEMQSPMQPVDQASLPGHCREPPPWENEATERIYHFVVGQMVYYQCVQGYRALHRGPAESVCKMTHGKTRWTQPQLICTGEMETSQFPGEEKPQASPEGRPESETSCLVTTTDFQIQTEMAATMETSIFTTEGGGGSGGGGSVHMPLGFLGPGGSAVNGTSQFTCFYNSRANISCVWSQDGALQDTSCQVHAWPDRRRWNQTCELLPVSQASWACNLILGAPDSQKLTTVDIVTLRVLCREGVRWRVMAIQDFKPFENLRLMAPISLQVVHVETHRCNISWEISQASHYFERHLEFEARTLSPGHTWEEAPLLTLKQKQEWICLETLTPDTQYEFQVRVKPLQGEFTTWSPWSQPLAFRTKPAALGKDGGGGSGGGGSVHMPLGFLGPGGS[about 120 residues left out][about 100 residues left out][human IgG1 Fc left out]
notes: masked K91 fusion, uncleaved; also called n530; construct No 530
As for B3, the “Binding before cleavage (BLI)” value in assay [1] was 0.7 nm. Moreover, in assay [2], the “EC50 before cleavage IL-2, HEK Blue IL-2 αβγ reporter assay” value stood at 0.1 nM and the “EC50 ratio (BC/AC)” value turned out to be 9. Besides, in assay [3], the “Binding recovery (BC/AC)” value is 61. The molecule further displayed an EC50 in assay [4] of 25.7 nM.

B4: pNOVI V2K K91_A3_IL-2_1_153_CM1 VKCK IL-2Rα_1_238_CM1_IL-2Rβ_27_239_CM1 VHCH (antibody, human IgG1, kappa)
light: [about 150 residues left out]GGGGSGGGGSVHMPLGFLGPGGSDIQMTQSPSSLSASVGDRVTITCNVDQVIANWLNWYQQKPGKAPKLLIYAASSLQSGVPSRFSGSGSGTDFTLTISSLQPEDFATYYCQQMHPRAPKQFGQGTKVEIKRTVAAPSVFIFPPSDEQLKSGTASVVCLLNNFYPREAKVQWKVDNALQSGNSQESVTEQDSKDSTYSLSSTLTLSKADYEKHKVYACEVTHQGLSSPVTKSFNRGEC
heavy: ELCDDDPPEIPHATFKAMAYKEGTMLNCECKRGFRRIKSGSLYMLCTGNSSHSSWDNQCQCTSSATRNTTKQVTPQPEEQKERKTTEMQSPMQPVDQASLPGHCREPPPWENEATERIYHFVVGQMVYYQCVQGYRALHRGPAESVCKMTHGKTRWTQPQLICTGEMETSQFPGEEKPQASPEGRPESETSCLVTTTDFQIQTEMAATMETSIFTTEGGGGSGGGGSVHMPLGFLGPGGSAVNGTSQFTCFYNSRANISCVWSQDGALQDTSCQVHAWPDRRRWNQTCELLPVSQASWACNLILGAPDSQKLTTVDIVTLRVLCREGVRWRVMAIQDFKPFENLRLMAPISLQVVHVETHRCNISWEISQASHYFERHLEFEARTLSPGHTWEEAPLLTLKQKQEWICLETLTPDTQYEFQVRVKPLQGEFTTWSPWSQPLAFRTKPAALGKDGGGGSVHMPLGFLGPGGS[about 120 residues left out][about 100 residues left out][human IgG1 Fc left out]
notes: masked K91 fusion, uncleaved; also called n545; construct No 545
Turning to B4, the “Binding before cleavage (BLI)” value in assay [1] amounted to 0.6 nm. In addition, in assay [2], the “EC50 before cleavage IL-2, HEK Blue IL-2 αβγ reporter assay” value was found to be 0.14 nM and the “EC50 ratio (BC/AC)” value was found to be 10. For the same molecule, in assay [3], the “Binding recovery (BC/AC)” value was 68. The same molecule yielded a concentration giving a half-maximal response (EC50) in assay [4] of 39.4 nM.
